Results are given in words; binding and its absence hold for the method and conditions named. For some assays here: In cells and extracts the contact can be indirect. Some entries that bind do so weakly or less than the wild type. Sequences can lack the tags named with a protein.
What was measured:
[1] = biological target: T1, CADM1-Fc (human (by the printed RefSeq entry)) (UniProt Q9BY67); assay: SPR; SPR imaging (OpenPlex); the 10 IgSF-Fc proteins spotted and immobilised by amine coupling; CADM2-Fc, CADM3-Fc or CADM4-Fc injected as analyte; 25°C; PBS with 0.2% BSA and 0.02% Tween20, 50 μL/min; both purified
T1 sequence: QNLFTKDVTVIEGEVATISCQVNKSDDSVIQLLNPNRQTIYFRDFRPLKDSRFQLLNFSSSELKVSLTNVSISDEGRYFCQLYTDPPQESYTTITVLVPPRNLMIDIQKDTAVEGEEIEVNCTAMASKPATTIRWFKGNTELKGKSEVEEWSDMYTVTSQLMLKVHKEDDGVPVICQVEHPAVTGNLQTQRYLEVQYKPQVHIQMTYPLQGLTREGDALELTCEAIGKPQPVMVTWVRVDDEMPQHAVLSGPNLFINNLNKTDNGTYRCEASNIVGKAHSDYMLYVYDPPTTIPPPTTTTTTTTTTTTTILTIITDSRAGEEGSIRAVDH

By UniProt entry, the sequences of proteins in these tests, tags left out. Where a name states a change or a piece, a line headed by the entry shows the natural chain unless it says otherwise. Chains listed by the source or under a name are the forms on record and can include a tag or linker. Residues count along the entry.
UniProt Q9NQS3, residues 58-404: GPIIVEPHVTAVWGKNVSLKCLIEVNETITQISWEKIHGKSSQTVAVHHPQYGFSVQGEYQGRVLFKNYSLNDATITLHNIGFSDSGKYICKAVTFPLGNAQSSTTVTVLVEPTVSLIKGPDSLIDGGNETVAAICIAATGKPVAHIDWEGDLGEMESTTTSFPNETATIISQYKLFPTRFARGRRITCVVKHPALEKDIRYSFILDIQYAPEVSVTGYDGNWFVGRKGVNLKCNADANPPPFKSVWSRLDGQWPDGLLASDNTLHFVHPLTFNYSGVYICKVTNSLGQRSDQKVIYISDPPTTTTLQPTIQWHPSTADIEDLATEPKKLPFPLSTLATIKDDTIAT
Nectin-2-Fc (human (by the printed RefSeq entry)) (Q92692, form named): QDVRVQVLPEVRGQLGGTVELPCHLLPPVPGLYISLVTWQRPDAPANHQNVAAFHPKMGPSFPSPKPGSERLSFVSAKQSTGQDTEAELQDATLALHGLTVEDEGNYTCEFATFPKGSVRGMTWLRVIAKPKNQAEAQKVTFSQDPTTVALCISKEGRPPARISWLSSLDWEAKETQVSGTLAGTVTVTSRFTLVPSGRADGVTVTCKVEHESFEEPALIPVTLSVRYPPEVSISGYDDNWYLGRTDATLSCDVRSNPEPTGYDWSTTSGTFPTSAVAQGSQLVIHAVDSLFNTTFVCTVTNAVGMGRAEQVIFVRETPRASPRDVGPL
UniProt Q96NY8, residues 32-349: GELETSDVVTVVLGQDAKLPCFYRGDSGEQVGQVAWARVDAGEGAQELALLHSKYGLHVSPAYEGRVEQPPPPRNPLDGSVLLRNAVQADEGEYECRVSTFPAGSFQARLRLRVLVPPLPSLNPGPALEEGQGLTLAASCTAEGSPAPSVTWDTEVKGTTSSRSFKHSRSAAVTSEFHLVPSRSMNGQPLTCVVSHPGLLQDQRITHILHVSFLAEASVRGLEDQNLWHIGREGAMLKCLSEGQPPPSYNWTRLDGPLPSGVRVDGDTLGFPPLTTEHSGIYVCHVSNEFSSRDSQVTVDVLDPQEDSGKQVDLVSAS

[2] = biological target: T2, CADM2-Fc (human (by the printed RefSeq entry)) (UniProt Q8N3J6); assay: as above
T2 sequence: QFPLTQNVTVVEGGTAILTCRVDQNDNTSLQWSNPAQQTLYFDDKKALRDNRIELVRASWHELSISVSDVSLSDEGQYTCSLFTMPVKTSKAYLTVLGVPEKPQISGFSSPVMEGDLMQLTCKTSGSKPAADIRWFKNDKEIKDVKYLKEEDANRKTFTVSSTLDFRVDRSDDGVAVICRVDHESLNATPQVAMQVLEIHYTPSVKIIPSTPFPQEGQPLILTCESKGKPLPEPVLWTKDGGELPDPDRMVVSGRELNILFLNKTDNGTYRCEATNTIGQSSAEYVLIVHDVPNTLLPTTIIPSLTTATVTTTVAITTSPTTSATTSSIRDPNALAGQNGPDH

[3] = biological target: T3, CADM3-Fc (human (by the printed RefSeq entry)) (UniProt Q8N126); assay: as above
T3 sequence: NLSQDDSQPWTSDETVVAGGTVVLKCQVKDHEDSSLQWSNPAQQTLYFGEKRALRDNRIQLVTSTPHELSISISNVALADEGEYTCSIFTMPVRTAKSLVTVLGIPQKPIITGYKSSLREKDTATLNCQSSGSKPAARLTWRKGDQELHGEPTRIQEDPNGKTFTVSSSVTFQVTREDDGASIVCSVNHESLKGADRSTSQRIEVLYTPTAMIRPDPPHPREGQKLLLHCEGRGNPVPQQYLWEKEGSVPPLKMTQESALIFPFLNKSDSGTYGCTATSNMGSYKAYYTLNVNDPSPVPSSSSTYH

[4] = biological target: T4, Nectin-1-Fc (human (by the printed RefSeq entry)) (UniProt Q15223); assay: as above
T4 sequence: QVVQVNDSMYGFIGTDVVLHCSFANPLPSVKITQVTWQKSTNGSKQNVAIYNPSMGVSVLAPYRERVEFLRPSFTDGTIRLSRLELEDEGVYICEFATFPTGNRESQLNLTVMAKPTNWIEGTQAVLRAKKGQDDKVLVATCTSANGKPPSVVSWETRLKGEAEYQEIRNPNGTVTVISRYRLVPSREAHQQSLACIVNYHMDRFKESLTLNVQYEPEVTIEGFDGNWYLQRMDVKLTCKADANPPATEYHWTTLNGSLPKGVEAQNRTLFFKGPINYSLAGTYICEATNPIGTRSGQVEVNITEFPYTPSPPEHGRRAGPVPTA

[5] = biological target: Nectin-3-Fc (human (by the printed RefSeq entry)) (UniProt Q9NQS3); assay: as above
CADM4-FLAG = biological target: T5, CADM4-FLAG (UniProt Q8NFZ8); assay: co-IP; 293FT cells transfected with CADM4-FLAG co-cultured 1:1 for 2 days with cells transfected with CADM1-GFP; cross-linked with 1 mM DTSSP; lysed in TNE buffer (1% Triton-X100); anti-FLAG M2 Affinity Gel, elution with 3 × FLAG peptide, Western blotting
T5 sequence: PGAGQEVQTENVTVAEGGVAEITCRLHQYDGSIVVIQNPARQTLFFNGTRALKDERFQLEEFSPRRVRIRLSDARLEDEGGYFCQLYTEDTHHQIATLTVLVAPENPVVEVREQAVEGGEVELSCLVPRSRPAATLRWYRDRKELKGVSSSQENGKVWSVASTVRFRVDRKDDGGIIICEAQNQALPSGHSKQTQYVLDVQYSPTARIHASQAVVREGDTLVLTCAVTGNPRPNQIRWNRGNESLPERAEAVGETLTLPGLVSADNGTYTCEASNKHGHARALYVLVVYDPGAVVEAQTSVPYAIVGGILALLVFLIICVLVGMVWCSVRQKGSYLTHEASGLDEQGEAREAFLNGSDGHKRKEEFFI

[6] = biological target: T4, Nectin-1-Fc (human (by the printed RefSeq entry)); assay: SPR; SPR imaging (OpenPlex); the 10 IgSF-Fc proteins (7-24 μM) spotted in hexaplicate and immobilised by amine coupling; 2.4 μM CADM1-Fc injected for 4 min; 25°C; PBS with 0.2% BSA and 0.02% Tween20, 50 μL/min; signal of normal human IgG subtracted; both purified
[7] = biological target: Nectin-2-Fc (human (by the printed RefSeq entry)) (UniProt Q92692); assay: as above
[8] = biological target: Nectin-3-Fc (human (by the printed RefSeq entry)) (UniProt Q9NQS3); assay: as above
[9] = biological target: Nectin-4-Fc (human (by the printed RefSeq entry)) (UniProt Q96NY8); assay: as above

B1: CADM2-Fc (Fc fusion, UniProt Q8N3J6-1 25-367)
chain: T2 sequence
- binding [1]: binds
- binding [2]: binds
- binding [3]: binds

B2: CADM3-Fc (Fc fusion, UniProt Q8N126-1 25-330)
chain: T3 sequence
- binding [2]: binds
- binding [4]: no binding
- binding [5]: no binding

B3: CADM1-GFP (protein, UniProt Q9BY67 45-442)
chain: QNLFTKDVTVIEGEVATISCQVNKSDDSVIQLLNPNRQTIYFRDFRPLKDSRFQLLNFSSSELKVSLTNVSISDEGRYFCQLYTDPPQESYTTITVLVPPRNLMIDIQKDTAVEGEEIEVNCTAMASKPATTIRWFKGNTELKGKSEVEEWSDMYTVTSQLMLKVHKEDDGVPVICQVEHPAVTGNLQTQRYLEVQYKPQVHIQMTYPLQGLTREGDALELTCEAIGKPQPVMVTWVRVDDEMPQHAVLSGPNLFINNLNKTDNGTYRCEASNIVGKAHSDYMLYVYDPPTTIPPPTTTTTTTTTTTTTILTIITDSRAGEEGSIRAVDHAVIGGVVAVVVFAMLCLLIILGRYFARHKGTYFTHEAKGADDAADADTAIINAEGGQNNSEEKKEYFI
- binding (CADM4-FLAG): binds

B4: CADM1-Fc (Fc fusion, UniProt Q9BY67-1 45-374)
chain: T1 sequence
- binding [6]: no binding (tested: 2.4 μM CADM1-Fc)
- binding [7]: no binding (tested: 2.4 μM CADM1-Fc)
- binding [8]: no binding (tested: 2.4 μM CADM1-Fc)
- binding [9]: no binding (tested: 2.4 μM CADM1-Fc)

Source: PMC6090299
